According to PubChem BioAssay AID686978 (National Center for Advancing Translational Sciences (NCATS), 2013):
Several values for one entry are separate records, joined by “and”; a condition that tells them apart may be missing. Equal values may be shown once. The campaign covered roughly 420,000 compounds. About 64,000 (15%) were called active. Inconclusive results, whose numbers are uncertain, are shown with a selection of clear calls. Calls come from the whole dose curve; as a rule, active = well fitted inhibition curve with a large enough effect; inconclusive = small, poorly fitted or top-dose-only effect; inactive = flat fitted curve, though single readings scatter. Potencies of inconclusive entries are doubtful fits and often do not repeat.

assay: qHTS for Inhibitors of human tyrosyl-DNA phosphodiesterase 1 (TDP1): qHTS in cells in absence of CPT; settings: DT40 Tdp1-/- hTDP1 cells, no CPT, ATP luminescence, 48 h; activity change, negative = growth inhibition: at 46.2 µM (top of the series) unless noted; note: nearly all actives have a fitted effect of over 55% in size
Method in brief: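 Growth kinetics read by CellTiter-Glo luminescence after ≥48 hr at 37 °C. Cells: DT40 Tdp1-/- stably carrying human TDP1, 400 per well, compound exposure in the absence of CPT (DMSO vehicle).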
% is set by controls: 0 for no effect and ±100 for the full control effect; potency is the fitted concentration of half-maximal effect; tags give direction and shape of the fitted curve.

SMILES | Potency | activity change, negative = growth inhibition
CCOc1ccc(C(=O)COC(=O)Cc2n[nH]c(=O)c3ccccc23)cc1 | active: 0.731 µM | 
COC(=O)c1nc2n(n1)C(c1cccc(Cl)c1)C(C(=O)Nc1ccccc1OC)=C(C)N2 (stereo unspecified) |  | inactive: 4.78%
Cn1c(=O)c2c(nc(OC3CCCCCC3)n2C)n(C)c1=O | inconclusive: 23.1 µM [inhibitor, single point] | 
O=C(COC(=O)/C=C/c1ccc(F)cc1)Nc1ccc(S(=O)(=O)N2CCOCC2)cc1 | inconclusive: 29.1 µM [inhibitor, single point] | 
CCn1c2ccccc2c2cc(NC(=O)COC(=O)c3cc(S(=O)(=O)N4CCCCC4)ccc3Cl)ccc21 | inconclusive: 32.6 µM [inhibitor, partial curve, poor fit] | 
COc1ccc(-c2nc3sc(CCNC(=O)c4cc(OC)c(OC)c(OC)c4)c(C)n3n2)cc1 | active: 16.4 µM | 
CNc1nc(SCc2ccc(C)cc2)nc2c1CCCC2 | inconclusive: 10.3 µM [inhibitor, partial curve] | 
CCc1ccc(CNC(=O)CN2C(=O)c3cccnc3Oc3ccc(Cl)cc32)cc1 | active: 16.4 µM | 
Cc1c(C(=O)Nc2c3c(nn2C(C)(C)C)CS(=O)(=O)C3)cccc1[N+](=O)[O-] | inconclusive: 16.4 µM [inhibitor, single point] | 
CCOc1cc(CO)cc(Br)c1OCC(=O)Nc1ccccc1C |  | inactive: -22.2%
COC(=O)c1cc(NS(=O)(=O)c2ccc(OC)c(OC)c2)ccc1Cl |  | inconclusive: -30.2% [inhibitor]
CC(C)NC(=O)Nc1ccc2c(c1)C(=O)N([C@H](C)CO)C[C@H](C)[C@@H](CN(C)C(=O)Nc1ccc3c(c1)OCO3)O2 |  | inactive: -12.5%
C=C[C@@H]1c2cc(C)ccc2N(S(=O)(=O)c2ccc(C)cc2)[C@H](c2ccc(C(=O)OC)cc2)C1(C#N)C#N | inconclusive: 6.31 µM [inhibitor, partial curve] | 
CCN(c1cccc(C)c1)S(=O)(=O)c1nnc(NC(=O)C2CCCCC2)s1 | inconclusive: 20.6 µM [inhibitor, single point] | 
Cc1nn(Cc2cccc(C(=O)N3N=C(C(F)F)CC3(O)C(F)F)c2)c(C)c1[N+](=O)[O-] (stereo unspecified) | inconclusive: 23.1 µM [inhibitor, single point] | 
COc1ncccc1C(=O)N1CCCC(N2CCN(c3cccc(Cl)c3)CC2)C1 (stereo unspecified) | inconclusive: 16.4 µM [inhibitor, single point] | 
C#CCN(C[C@H]1[C@H](OC(=O)NCc2ccccc2F)[C@H](OC(=O)NCc2ccccc2F)C[C@@H](C(=O)OC)[C@H]1C(=O)OC)S(=O)(=O)c1ccc(C)cc1 | active: 6.51 µM | 
O=C(CN1CCN(S(=O)(=O)c2ccc(Cl)cc2)CC1)Nc1ccc2c(c1)OCCO2 | active: 14.6 µM | 
CCC(=O)N(CCc1ccccc1)Cc1cc2cccc(C)c2[nH]c1=O | inconclusive: 25.9 µM [inhibitor, single point] | 
CCCCNC(=O)C1C(c2ccccc2)=Nc2ccccc2N1C(=O)c1ccc2c(c1)OCO2 (stereo unspecified) | inconclusive: 23.1 µM [inhibitor, partial curve] | 
O=C(NCCc1c[nH]c2ccccc12)c1cc2sccc2n1Cc1ccccc1 | active: 20.6 µM | 
CCC(C)[C@H](NC(=O)[C@H](Cc1ccccc1)n1c(=O)[nH]c2ccccc2c1=O)C(=O)NCC1CCC(C(=O)O)CC1 (stereo partly specified) |  | inactive: 11.1%

SMILES | Potency | activity change, negative = growth inhibition
Cc1cccc(OCCn2c(=O)n(C)c3ccccc32)c1 | inconclusive: 18.4 µM [inhibitor, single point] | 
COc1cccc(C(=O)C2CCCN(Cc3cccc(-n4cccn4)c3)C2)c1 (stereo unspecified) | inconclusive: 16.4 µM [inhibitor, partial curve, poor fit] | 
Cc1cc(C)c2cc(C#N)c(NCCCNC(=O)c3ccncc3)nc2c1 | inconclusive: 23.1 µM [inhibitor, single point] | 
CC1(C)CCC(=O)N2CC[C@H]3C[C@H](OC(=O)Nc4ccccc4)C[C@@H]1[C@H]32 | inconclusive: 35.5 µM [inhibitor, single point] | 
CC(C)(C)c1nc2cc(Cl)c([N+](=O)[O-])cc2o1 | active: 23.1 µM | 
CC(C)(C)NC(=O)C(=O)NNC(=O)COc1ccc(Br)cc1 | inconclusive: 10.3 µM [inhibitor, partial curve, poor fit] | 
CCC(C)NC(=O)c1cn(CC)c2cc(N3CCN(C(=O)c4ccco4)CC3)c(F)cc2c1=O (stereo unspecified) | active: 13 µM | 
CCCn1c(SCc2ccc(Cl)cc2)nc2c1c(=O)[nH]c(=O)n2C | active: 16.4 µM | 
Cc1[nH]n(-c2ccccc2)c(=O)c1C(C[N+](=O)[O-])c1ccc(F)cc1 (stereo unspecified) | active: 11.6 µM | 
O=C(/C=C/c1cccs1)NCc1cccnc1 |  | inactive: -1.9%
COc1cc(C(CC(=O)N2CCN(c3ccccc3)CC2)c2c(OC)cc(OC)c3ccc(=O)oc23)cc(OC)c1OC (stereo unspecified) | inconclusive: 18.4 µM [inhibitor, single point] | 
CCOc1ccc(C2c3[nH]c4ccccc4c3CCN2C(=O)CCc2ccccc2)cc1 (stereo unspecified) | inconclusive: 29.1 µM [inhibitor, single point] | 
CCOc1ccc(OCC)c(NC(=O)CCSCCc2ccccn2)c1 | inconclusive: 23.1 µM [inhibitor, partial curve] | 
COc1cc(C)ccc1S(=O)(=O)NC(=O)C1(C)CCN1C(=O)COc1ccc(Cl)cc1 (stereo unspecified) |  | inactive: -4.35%
COC(=O)C1=C(C)NC(=O)NC1c1ccc([N+](=O)[O-])o1 (stereo unspecified) |  | inconclusive: -31.5% [inhibitor]
CCN(CC(=O)Nc1ccccc1OC)CC(=O)Nc1ccccc1-c1ccccc1 | active: 9.2 µM | 
CCOc1ccc(CCNC(=O)c2sc3nc4n(c(=O)c3c2C)CCCC4)cc1OCC | inconclusive: 25.9 µM [inhibitor, single point] | 
CC1=CCC2C(=O)N(c3ccc(C(=O)N4CCCCCC4)cc3)C(=O)C2C1 (stereo unspecified) | inconclusive: 25.9 µM [inhibitor, single point] | 
CCOC(=O)C1CCN(Cc2cc(Cl)c3ccccc3c2O)CC1 | inconclusive: 29.1 µM [inhibitor, single point] | 
CC(C)OC(=O)c1cc(-c2ccc(C=O)o2)ccc1Cl | inconclusive: 29.1 µM [inhibitor, single point] | 
CCOCC(=O)N1CCN(c2cccc(Cl)c2)CC1 | inconclusive: 14.6 µM [inhibitor, partial curve] | 
Cc1nn(C)c(C)c1S(=O)(=O)N1CCCC(C(=O)NCCc2ccc(Cl)cc2)C1 (stereo unspecified) | inconclusive: 20.6 µM [inhibitor, single point] | 

SMILES | Potency | activity change, negative = growth inhibition
Cc1ccc(N2CC(C(=O)Nc3nc4ccc(S(C)(=O)=O)cc4s3)CC2=O)cc1C (stereo unspecified) |  | inactive: -26.9%
Cc1ccc(Sc2c(C)nn(C(=O)COc3ccccc3Br)c2C)cc1 |  | inactive: -3.3%
O=C(C1CCN(S(=O)(=O)c2ccc(Br)s2)CC1)N1CCN(c2cccc(Cl)c2)CC1 | inconclusive: 18.4 µM [inhibitor, single point] | 
COc1cc(C(=O)NCCCc2nc3ccccc3n2CC(C)C)cc(OC)c1OC | inconclusive: 20.6 µM [inhibitor, single point] | 
COC(=O)c1sccc1NC(=O)c1cc(OC)c(OC)c(OC)c1 | inconclusive: 23.1 µM [inhibitor, partial curve] | 
CCc1noc(C)c1C(=O)Nc1nc(-c2ccc(OC)cc2OC)cs1 | active: 16.4 µM | 
O=S1(=O)CCOC[C@H](c2ccccc2)N1Cc1cccc(Cl)c1 | inactive and inconclusive: 20 µM [inhibitor, single point] | 
C[C@H]1[C@H](C)CC[C@]2(C)CC[C@]3(C)C(=CC(=O)C4[C@@]5(C)CC[C@H](O)C(C)(C)C5CC[C@]43C)[C@H]12 (stereo partly specified) | inconclusive: 23.1 µM [inhibitor, single point] | 
O=C(COc1ccc(Cl)cc1Cl)NCc1ccncc1 |  | inactive: -29.7%
CCOC(=O)c1c(NC(=O)c2ccc(S(=O)(=O)N3CCC(C)CC3)cc2)sc2c1CCN(C)C2 | active: 3.66 µM | 
Cc1ccc(C)c(Sc2ccc(NC(=O)CCN3C(=O)NC4(CCCC4)C3=O)cc2)c1 | inconclusive: 25.9 µM [inhibitor, single point] | 
O=C(O)c1cc(-c2cccc(Cl)c2)nc2nc(N3CCCCC3)sc12 | inconclusive: 25.9 µM [inhibitor, partial curve, poor fit] | 
Cc1c(N=C(N)/N=C(\N)Nc2ccc(Br)cc2)c(=O)n(-c2ccccc2)n1C | inconclusive: 29.1 µM [inhibitor, single point] | 
COc1ccc(C(C)=O)cc1CSc1ncccn1 |  | inactive: 14.9%
COc1cccc(CN=CC2=C(O)CC(C)(C)CC2=O)c1OC |  | inactive: -11.7%
C/C(=N\Nc1nnc2c3ccccc3n(C)c2n1)c1ccc(C)o1 | inconclusive: 14.6 µM [inhibitor, partial curve, poor fit] | 
CCn1c(=O)cc(OCC(=O)NCCC(C)C)c2ccccc21 | inconclusive: 18.4 µM [inhibitor, partial curve] | 
Cc1ccc(C2NC(c3ccc(C)cc3)C(C)C(=NO)C2C)cc1 (stereo unspecified) | inconclusive: 18.4 µM [inhibitor, single point] | 
Cc1cc(C)cc(-n2ccnc2SCC(=O)Nc2nnc(C)s2)c1 | active: 3.26 µM | 
COc1ccc(NC(=O)COc2ccccc2)cc1Cl |  | inactive: -10.4%
CCOc1ccc2nc(N3CCCC(C(=O)Nc4c(C)cccc4C)C3)sc2c1 (stereo unspecified) | inconclusive: 29.1 µM [inhibitor, single point] | 
CN(C)C(=O)c1nc2ccc(Cl)cn2c1CNCc1ccccc1OC(F)(F)F | inconclusive: 18.4 µM [inhibitor, partial curve] | 
